Experimental findings from publication PMC10668032 are described below.

The list shows a part of the results. At the low end of the ranking the order means little.

In this experiment the target is SIX1-Q177R homeodomain (UniProt Q15475). As to the kind of experiment: universal protein binding microarray. As to conditions: Universal all-10-mer PBM (8x60K, AMADID 030236), 300 nM GST-tagged protein, Alexa Fluor 488 anti-GST; buffer, salt, pH and temperature not stated; high values mean tight binding; most listed sequences are background and not binding sites; double strand, one strand shown.
As to GAGACGCA, the binding signal is 0.0458 E-score.
As to GGGCGATA, the binding signal worked out at 0.125 E-score.
To TGCGAGCA belongs -0.159 E-score; to AAGGTTTA, -0.0242 E-score; to CTCCGGAC, 0.103 E-score.
With GTTGTAGA, the binding signal was -0.0294 E-score.
To ACTGGGAC belongs -0.0503 E-score; to AGAGTGCT, 0.118 E-score.
As to ATTGGGTG, the binding signal was 0.261 E-score.
Turning to AACAACTG, the binding signal is -0.225 E-score.
With GTAGTTTA, the binding signal turned out to be 0.0269 E-score.
With CCCAAGGG, the binding signal was found to be 0.0437 E-score.
To ATGTGCTC belongs -0.134 E-score; to ATTCCCTA, -0.0709 E-score.
As for GTTGACCA, the binding signal is -0.0854 E-score.
As to CTAGTGCC, the binding signal was -0.212 E-score.
In the case of CTTAAAGA it was -0.117 E-score; in that of AAGACACG, 0.35 E-score.
Regarding AGGCTCTA, the binding signal is -0.341 E-score.
Regarding AAACGCCG, the binding signal came out at 0.02 E-score.
Regarding GTCGACCA, the binding signal came to 0.00099 E-score.
Turning to ACGTTCCT, the binding signal is -0.029 E-score.
With CGCAAATC, the binding signal was -0.0955 E-score.
In the case of AGTGTATA, the binding signal worked out at 0.359 E-score.
Turning to ATACAGTC, the binding signal was -0.286 E-score.
Take CGGACCTA: the binding signal is -0.0186 E-score.
As for GGCAGTAA, the binding signal is -0.143 E-score.
Turning to GCGGTAAC, the binding signal is -0.00086 E-score.
As to ATTTCCTC, the binding signal is -0.144 E-score.
Turning to CCGGTCAA, the binding signal was 0.2 E-score.
Turning to GGCGACAC, the binding signal was determined as 0.44 E-score.
To CAACATAA belongs -0.112 E-score; to ACGACTCA, 0.028 E-score.
In the case of ATTTGGAG, the binding signal turned out to be 0.0741 E-score.
For CAGTACCC, the binding signal is 0.135 E-score.
Turning to AAGCCAGC, the binding signal was -0.0146 E-score.
As for GTTAGTGA, the binding signal was determined as 0.162 E-score.
As for TTACACAA, the binding signal stood at 0.223 E-score.
Turning to AGGTCACC, the binding signal is -0.12 E-score.
On to AATATAAC, for which the binding signal was found to be 0.0351 E-score.
As to ATGTTAAG, the binding signal was -0.0168 E-score.
Take ATTACAAC: the binding signal is -0.226 E-score.
In the case of GCCCCTGA it was -0.0086 E-score; in that of GAAGTGAA, -0.119 E-score; in that of CGTGTTAC, 0.408 E-score.
Turning to CTTTAGCC, the binding signal is -0.156 E-score.
For TATCTTAA, the binding signal is -0.0267 E-score.
Consider AAGTTGGT, for which the binding signal is -0.0933 E-score.
Consider CGCCCACA, for which the binding signal was 0.0437 E-score.
As for ATTAATCC, the binding signal turned out to be 0.0551 E-score.
Regarding ATCCCGAA, the binding signal worked out at 0.0583 E-score.
For GGGCTCTA, the binding signal was -0.072 E-score.
For GCGGCACA, the binding signal is -0.0543 E-score.
Regarding ATTCGTGA, the binding signal was -0.162 E-score.
To CAGTCCCA belongs -0.183 E-score.
In the case of TACGCATA it was 0.0319 E-score; in that of CAAAATAG, -0.223 E-score.
Take ATTCGCTA: the binding signal was -0.0733 E-score.
With TCTGTTAA, the binding signal is -0.173 E-score.
In the case of CCTCACCG, the binding signal is -0.039 E-score.
With ATGCGAGC, the binding signal is -0.0551 E-score.
To AGCTGCAG belongs -0.141 E-score.
Regarding CATATGCA, the binding signal was found to be 0.0415 E-score.
In the case of GCCGCGGC it was -0.0971 E-score.
Turning to AGTGATTA, the binding signal was -0.0388 E-score.
In the case of AAGGCTAC, the binding signal was -0.032 E-score.
As for CAGGTACG, the binding signal was determined as 0.119 E-score.
For ATCTAGCA, the binding signal was -0.0349 E-score.
With CGTTGGAG, the binding signal is -0.0454 E-score.
For the sequence CCGAAGCA, the binding signal is 0.0848 E-score.
To CGAAAACG belongs -0.236 E-score; to CTAACACA, 0.209 E-score; to AACGTCAG, -0.0853 E-score.
To AGGCGCAG belongs -0.113 E-score; to CACTGTGG, 0.15 E-score.
In the case of ACCGCGAT, the binding signal is -0.0762 E-score.
In the case of AGGGCTAG, the binding signal is -0.193 E-score.
Regarding CTATCTAA, the binding signal was -0.128 E-score.
On to ACGAGAGA, for which the binding signal is -0.0551 E-score.
Regarding GCAGTTTA, the binding signal is -0.191 E-score.
As for AATCGGCG, the binding signal is -0.17 E-score.
On to GAGCCCTC, for which the binding signal was -0.222 E-score.
Consider CCTAAGAG, for which the binding signal came out at 0.118 E-score.
In the case of ATCTTTGG it was -0.154 E-score.
In the case of ACATATCG, the binding signal was found to be 0.0902 E-score.
Take CCATTCAC: the binding signal was determined as 0.0737 E-score.
As to CGGTTTGA, the binding signal was -0.106 E-score.
Consider CAATACTG, for which the binding signal was -0.0122 E-score.
With AGCCAAAC, the binding signal was -0.157 E-score.
For GAACTGAC, the binding signal is -0.129 E-score.
Consider ATATAACA, for which the binding signal is 0.197 E-score.
Consider AAGTAATG, for which the binding signal was -0.076 E-score.
With ATCCCGCC, the binding signal is 0.0191 E-score.
With AACAGTGC, the binding signal amounted to 0.00491 E-score.
To AGTCCCAC belongs -0.0572 E-score; to AGGGGGGG, 0.138 E-score; to CAACCCCC, 0.242 E-score.
On to CCGCAACG, for which the binding signal is -0.276 E-score.
In the case of ATAGGTAC it was 0.166 E-score; in that of CTGAGACA, 0.0291 E-score; in that of CACAAACG, -0.0025 E-score.
Regarding ACAGCGTC, the binding signal came out at 0.061 E-score.
Take AAGTAGTA: the binding signal is 0.00649 E-score.
For ATTGCGCA, the binding signal was -0.102 E-score.
To GTTAGGGA belongs 0.00751 E-score; to CCATGACG, -0.0625 E-score; to CAGGACTA, -0.0996 E-score.
On to CATGACAG, for which the binding signal was -0.219 E-score.
To ACCGCGGG belongs 0.241 E-score; to TCCCAGCA, -0.124 E-score; to CGAGGGAC, -0.0551 E-score.
Regarding TCTATTCA, the binding signal was -0.17 E-score.
In the case of CCGTATGA, the binding signal is 0.0416 E-score.
On to AGTGGACG, for which the binding signal was -0.0169 E-score.
On to AAGGACGG, for which the binding signal is -0.103 E-score.
Take ATTTGTCG: the binding signal was -0.235 E-score.
As for CGAGCTGA, the binding signal was -0.0571 E-score.
On to CGTCTATC, for which the binding signal is 0.13 E-score.
As to ATCCATTG, the binding signal was 0.00378 E-score.
In the case of ACCTTTCT, the binding signal stood at 0.115 E-score.
To AGTCAACG belongs -0.0933 E-score.
As to GTACGCTA, the binding signal came to 0.153 E-score.
To CCAAAACG belongs -0.119 E-score; to AGCGTGGG, -0.0287 E-score.
Turning to AAGGAACT, the binding signal is -0.265 E-score.
For the sequence CGAAATGC, the binding signal is -0.163 E-score.
In the case of AATGCACC, the binding signal came out at 0.162 E-score.
In the case of ATTTTCCC it was -0.221 E-score.
In the case of AGATTCTG, the binding signal was -0.0803 E-score.
As for CTAGGAGC, the binding signal was -0.125 E-score.
Regarding ATAGGTAA, the binding signal is -0.0324 E-score.
On to CACCGCCG, for which the binding signal is 0.375 E-score.
Turning to AACGCGAG, the binding signal was -0.0866 E-score.
With CAACAAGA, the binding signal is -0.111 E-score.
With CACAGCGA, the binding signal came out at 0.0566 E-score.
As to CTCCTCGA, the binding signal was -0.126 E-score.
To TAGTCATA belongs -0.125 E-score; to TCGCACCA, 0.177 E-score; to CCTACAGA, 0.0349 E-score.
With GTCCCTGA, the binding signal worked out at 0.0504 E-score.
CCTGGTCA: the binding signal amounted to 0.0409 E-score.
With CGGTTTCA, the binding signal was determined as 0.0738 E-score.
To CAACTGCG belongs -0.111 E-score.
Take CACCTCGC: the binding signal was found to be 0.203 E-score.
For CCGCCCCC, the binding signal was 0.117 E-score.
For the sequence ATCGGCAA, the binding signal was -0.095 E-score.
For the sequence ACGTGCCA, the binding signal was -0.0195 E-score.
For the sequence GGATGGCC, the binding signal was 0.0504 E-score.
As to CCCTTGAC, the binding signal was 0.176 E-score.
To TTATGGAA belongs -0.316 E-score; to ACGCAGAA, -0.0908 E-score.
On to TCGTTAGA, for which the binding signal was -0.258 E-score.
ATGACGGA: the binding signal is -0.127 E-score.
CCAAGGTA: the binding signal was -0.0239 E-score.
To ACATCTGC belongs -0.206 E-score.
As to CTTTCTAC, the binding signal turned out to be 0.136 E-score.
Turning to AGCTGGAC, the binding signal was found to be 0.037 E-score.
Consider ATGGGAGC, for which the binding signal is -0.149 E-score.
Take AGCCTCTA: the binding signal was -0.177 E-score.
Regarding CCACTCGA, the binding signal was -0.011 E-score.
CCAGTAGG: the binding signal is -0.0963 E-score.
Turning to ACTGCCGA, the binding signal was found to be 0.119 E-score.
As for AATATCAA, the binding signal was -0.0692 E-score.
Turning to AGCTGCTG, the binding signal was -0.195 E-score.
As to CAAAATGA, the binding signal was -0.19 E-score.
With GACAGATA, the binding signal is -0.00448 E-score.
To AAAGAAAC belongs -0.0719 E-score.
On to CACGCATG, for which the binding signal was 0.126 E-score.
As to CCCATCCC, the binding signal was 0.125 E-score.
Regarding CTAGGGGC, the binding signal is -0.102 E-score.
ACGTCCGG: the binding signal is -0.0291 E-score.
To AAATATTC belongs -0.0168 E-score.
